Experimental data published in PubChem BioAssay AID1508624 (National Center for Advancing Translational Sciences (NCATS), 2021).
Screen size: about 48,000 compounds; about 120 (0.25%) were called active. About 4% were inconclusive and are not listed. The call rests on the fitted dose curve; in most records, active means well fitted activation curve with a large enough effect; inconclusive means small, poorly fitted or top-dose-only effect, or another doubt; inactive means no such curve, though single readings can be large or run the other way. Some of the results follow.

Experiment: Primary qHTS for Identification of Small Molecule Activators of Huntingtin-Antisense Promoter Activity; further: nearly all actives have a fitted effect of over 55% in size
Details: HEK293 HTT-AS promoter firefly luciferase reporter, 24 h; series mostly up to 57.5 µM; activity change, positive = activation: at the top concentration
Outline: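 Luminescence was read after Dual-Glo reagent and a 10 min room-temperature incubation. Values were normalized to vehicle (0% activity) and zero RLU (-100% activity). Reporter HEK293 cells had been exposed to compounds (up to 57.5 uM final) for 24 h.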

Activity change, positive = activation, inactive:
CNCCc1ccccn1 2.54%
CC(=O)N1CCCc2cc(S(=O)(=O)N3CCCC(C(=O)Nc4ccc(C)cc4C)C3)ccc21 (stereo unspecified) -10.3%
Cc1cccc(NC(=O)CN2C(=O)C(c3ccccc3)=NC23CCC(C)CC3)c1 (stereo unspecified) -20.9%
CC(=O)c1cccc(-n2c(=O)c3c4c(sc3n(Cc3cccc(C)c3)c2=O)CN(C(C)=O)CC4)c1 -22.7%
Cc1cc(C)n(CCc2nc3c4ccccc4nc(N4CCN(c5cccc(C)c5C)CC4)n3n2)n1 -3.52%
CCCCN(C)CCCNC(=O)C1CCN(S(=O)(=O)CC)CC1 -3.56%
CC1=C(C)C(=O)C(C(CCCCCC(=O)O)c2ccccc2)=C(C)C1=O (stereo unspecified)
Cc1c2cnn(CC(=O)N3CCN(c4ccccc4)CC3)c(=O)c2c(C)n1Cc1ccccc1Cl -3.89%
CSc1ncc(Cl)c(C(=O)Nc2ccc(S(=O)(=O)Nc3nccc(C)n3)cc2)n1 -15.7%
CCCCN(C)CCCNC(=O)CN1N=C(c2ccc(OC)cc2)CCC1=O -10.2%
CC(=O)C1=C(c2ccccc2)N(C(C)=O)n2c(nnc2C2CCCCC2)S1 -17%
CC(=O)c1ccc(NC(=O)CCc2c(C)nc3c(c2C)c(=O)n(C)c(=O)n3C)cc1 5.34%
Cc1cc(C)cc(-n2cnc3cc(C(=O)NC4CCCCCC4)ccc32)c1 -34.1%
COc1ccc(CCNC(=O)c2cc3n(n2)CCCN(Cc2ccc(C)cc2)C3=O)cc1OC -4.65%
O=C(NCc1ccc(Cl)cc1)c1ccc(Cn2c(=O)c3cccn3c3cccnc32)cc1 -20.1%
COc1ccc(S(=O)(=O)N2CCN(Cc3nc4ccc(C)cc4o3)CC2)cc1 -6.55%
Cc1ccc(C)c(Nc2nnc(-c3ccc(C)c(S(=O)(=O)NCC4CCCO4)c3)c3ccccc23)c1 (stereo unspecified) -37.6%
O=C(Cn1c(=O)n(Cc2nc(-c3ccccc3)no2)c(=O)c2ccccc21)Nc1cccc(Cl)c1 -27.3%
Cc1cnc(Nc2ccc(OCCN3CCCC3)cc2)nc1Nc1cccc(S(=O)(=O)NC(C)(C)C)c1 -34.1%
COc1ccc(-c2c(C)c3ccc(O)c(CN4CCCC(C)C4)c3oc2=O)cc1OC (stereo unspecified) -21.2%
O=C1CCc2cc(S(=O)(=O)NC(C(=O)Nc3cccc(F)c3)c3ccccc3)ccc2N1 (stereo unspecified) 26.2%
COCCCNC(=O)c1ccc2c(c1)N(Cc1ccccc1F)C(=O)c1ccccc1S2=O (stereo unspecified) -21.8%
COc1ccc(-c2nnc(SCC(=O)Nc3ccc(C)c(C)c3)s2)cc1 17.9% [at 11.5 µM, percent change from vehicle, -100% = no light]
CCOc1ccc(N2C(=O)c3[nH]nc(-c4ccc(OC)cc4)c3C2c2cccs2)cc1 (stereo unspecified) -34.3%
COc1ccc(C(=O)Nc2ccc3c(c2)CCCN3S(=O)(=O)c2ccc(C)cc2)c(OC)c1 9.2%
CCc1ccc(S(=O)(=O)c2cn(C)c3cc(N4CCCC4)c(F)cc3c2=O)cc1 -10.6%
O=C(NCc1ccco1)c1ccc2c(c1)N(Cc1ccc(Cl)cc1)C(=O)c1ccccc1S2(=O)=O -32.7%
COC(=O)c1nnn(-c2ccc(Br)cc2)c1C(=O)OC -5.64%
Cc1cc(C)cc(C(=O)NCC(c2ccc(N(C)C)cc2)N2CCCC2)c1 (stereo unspecified) -10.5%
CN(Cc1ccccc1)c1ccc(-c2nc(-c3ccncc3)no2)cc1[N+](=O)[O-] -13.1%
CCOC(=O)CC(NC(=O)CCc1c(C)nc2ncnn2c1C)c1ccc(C)cc1 (stereo unspecified) -3.83%
Cc1cn2c(=O)c(S(=O)(=O)Nc3ccc(F)cc3F)c(C)nc2s1 -14%
COc1cccc(NC(=O)C2CCCN(S(=O)(=O)c3cccc4nonc34)C2)c1 (stereo unspecified) -11.8%
O=C(NCCC1=CCCCC1)C1CCN(C(=O)N2CCOc3ccc(Cl)cc32)CC1 -16.7%
O=C(c1cnn(-c2ccc(F)cc2)c1-n1cccc1)N1CCN(c2ccc(Cl)cc2)CC1 -13.3%
COc1ccccc1NC(=O)Cn1c(=O)c(CNc2ccccc2)cc2cc(OC)c(OC)cc21 -1.22%
Fc1ccc(-n2ncc3c(Nc4cccc(Cl)c4)ncnc32)cc1 13.1%
Cc1cccc(CNC(=O)c2ccc3c(c2)c(C)c(C)n3Cc2ccccc2)c1 -27.6%
COc1ccccc1C1C=C(c2ccc(C(C)C)cc2)Nc2nnnn21 (stereo unspecified) -19.5% [at 11.5 µM, percent change from vehicle, -100% = no light]
CSc1ncc(Cl)c(C(=O)N(Cc2ccc(C)cc2)C2CCS(=O)(=O)C2)n1 (stereo unspecified) 12.7%
Cc1cc(C)cc(OCc2cc(=O)n3c(-c4ccccc4)csc3n2)c1 -0.925%
COc1cc(OC)cc(-c2nc3nc(C)c(CCC(=O)Nc4ccc(C)cc4C)c(C)n3n2)c1 -19.6%
O=S(=O)(c1ccccc1)c1nnn2c1nc(NCc1ccc(Cl)cc1)c1sccc12 -1.09%
CCN(CC)S(=O)(=O)c1ccc(C(=O)Nc2nc3ccc(Cl)cc3s2)cc1 -11.7%
O=C1CCc2cc(S(=O)(=O)NCc3ccccc3Cl)cc3c2N1CC3 9.46%
COc1cccc(NC(=O)Cn2cc(S(=O)(=O)Cc3ccccc3F)c3ccccc32)c1 -26.6%
CCOC(=O)N1CCN(Cc2nc3cc(NC(=O)c4cccc(C)c4)ccc3n2C(C)C)CC1 -24.3%
O=C(CCn1ccc2cc(S(=O)(=O)N3CCCC3)ccc21)NCc1ccccc1F -10%
Cc1ccc(S(=O)(=O)c2nnn3c2nc(NCc2cccs2)c2sccc23)cc1 -27.3%
CCn1nc(C)c2c(-c3ccccc3)cc(=O)n(C(C)C(=O)NCc3ccccc3OC)c21 (stereo unspecified) -23.3%
COc1cccc(NC(=O)c2oc3ccccc3c2NC(=O)C2CCCCC2)c1 8.3%
COc1cc(Nc2nc(SCc3ccccc3Cl)nc3ccccc23)cc(OC)c1 -34.2%
CCc1ccccc1NC(=O)CCCN1C(=O)CCn2nc(-c3cn(C)c4ccccc34)cc21 -2.43%
COc1ccc(C(=O)/C=C/c2cn(CC(O)CN3CCc4ccccc43)c3ccccc23)cc1 (stereo unspecified) -30.2%
CCOCc1cc(CN2CCN(c3ccccc3OC)CC2)c(O)c2ncccc12 -35.9%
CCOc1ccc(NC(=O)CSc2oc(-c3ccccc3)nc2S(=O)(=O)c2ccc(Cl)cc2)cc1 -7.39%
COC(=O)c1cc(NC(=O)c2cc3sccc3n2Cc2ccc(Cl)cc2)cc(C(=O)OC)c1 -19.1%
O=C1NC(NS(=O)(=O)c2ccccc2)(C(F)(F)F)C(=O)N1c1ccc(F)cc1 (stereo unspecified) -3.35%
Cc1cc(N2CCC(C(=O)N(CC(C)C)CC(C)C)CC2)n2nc(C)c(-c3ccc(Cl)cc3)c2n1 -1.7%
CCc1ccc(NCc2cc3ccc(OC)cc3n(CC(=O)Nc3c(C)cc(C)cc3C)c2=O)cc1 -1.2%
CCN(CC)C(C)CN1c2ccccc2Sc2ccccc21 (stereo unspecified) -1.11%
CCCNC(=O)NS(=O)(=O)c1ccc(Cl)cc1 -0.252%
CC(C)Oc1ccc(C(=O)N(Cc2ccc(N(C)C)cc2)C2CCS(=O)(=O)C2)cc1 (stereo unspecified) -7.97%
COc1ccc(Cl)cc1NC(=O)Cn1ccn(-c2cc(C)cc(C)c2)c(=O)c1=O -19.7%
Cn1nnc2c(N3CCN(c4ccc(F)cc4)CC3)ncnc21 9.2%
Cc1ccccc1CNC(=O)CCS(=O)(=O)c1cc2c3c(c1)CCN3C(=O)CC2 0.251%
CCOc1cccc(CNC(=O)c2ccc(N3CCCC3)c(NC(=O)NCc3ccccc3)c2)c1 -9.94%
Cc1ccc(N2CCN(C(=O)c3cc4cc5ccc(C)cc5nc4s3)CC2C)cc1 (stereo unspecified) 5.3%
Cc1ccc(Nc2sc(C(=O)c3ccccc3)c(N)c2S(=O)(=O)c2ccccc2)cc1Cl -12.9%
CCc1ccc(CNC(=O)Cn2nc(-c3ccc(C)cc3)ccc2=O)cc1 -6.78%
COc1ccccc1N1CCN(C(=O)CCS(=O)(=O)c2ccc3c(c2)oc(=O)n3C)CC1 -3.72%
CC1CCCN(CCCNC(=O)c2ccc3c(c2)N(Cc2ccc(Cl)cc2)C(=O)c2ccccc2S3(=O)=O)C1 (stereo unspecified) -26.7%
Cc1cc(OC(C)C(=O)N(Cc2ccc(N(C)C)cc2)Cc2ccco2)ccc1Cl (stereo unspecified) -22.8%
Cc1ccccc1C(=O)Nc1cccc(OCc2cc(=O)n3cccc(C)c3n2)c1 -28.9%
Cc1ccc(C)c(NC(=O)Cn2cc(S(=O)(=O)Cc3cccc(Cl)c3)c3ccccc32)c1 -17.2%
CCc1ccc(NC(=O)CN2C(=O)CSc3ccc(S(=O)(=O)N(C)C)cc32)cc1 1.73%
O=C(NCc1ccccc1)c1ccc2c(c1)CCN2S(=O)(=O)c1ccc(Cl)cc1 -12.1%
CCn1cc(C(=O)NCCc2ccc(OC)c(OC)c2)c(=O)c2cc(S(=O)(=O)N(C)C3CCCCC3)ccc21 -36.1%
CC(=O)O[C@]1(C(C)=O)CC[C@H]2[C@@H]3C=C(Cl)C4=CC(=O)CC[C@]4(C)[C@H]3CC[C@@]21C -17.9%
COc1ccc(-c2noc(CN(C(=O)C(C)Oc3ccc(C)cc3)C(C)C)n2)cc1 (stereo unspecified) -22.1%
COc1ccc2cc3c(N)nn(C(=O)c4ccccc4Cl)c3nc2c1 -27.6%
CCOc1ccc(NC(=O)N2CCN(c3ccc(Cl)c(Cl)c3)CC2)cc1 -22.9%
COc1ccc(CNC(=O)c2ccc(-c3nc(CSc4ccc(C)cc4)c(C)o3)cc2)c(OC)c1 -6.36%
Cc1cccc(CCNC(=O)c2cc3c(s2)-c2c(C)cccc2OC3)c1 -14.2%
Cc1ccc2c(c1)N(C(=O)Nc1cccc3c1CCCC3)CCO2 -8.3%
CCCN1CCN(C(=O)Cn2c(-c3cccs3)cc3cc(F)ccc32)CC1 -8.7%
CCOC(=O)c1c(NC(=O)CSc2cn(CCNC(=O)c3ccc(OC)cc3)c3ccccc23)sc2c1CCCC2 -56.9%
COc1ccc(C2c3c(n(C)c4ccccc34)C(=O)N2CC(=O)Nc2cccc(Cl)c2)cc1 (stereo unspecified) -27.1%
COc1ccc(-c2noc(CSc3nnc(C)n3-c3cccc(C)c3)n2)cc1 -31.1%
COc1cc(C(=O)NCCc2csc(-c3ccc(Cl)cc3)n2)cc(OC)c1OC -25.1%
COc1ccc(O)c(C2=Nc3ccccc3N=C(c3ccccc3)C2)c1 -5.52%
